Some of the results follow. Single values are uncertain, as repeats are few or missing.
What was measured:
Assay in all cases: cell count relative to DMSO control; melanoma cells; higher = more viable cells
Conditions in all cases: library dose: low library concentration; 72 h
WM115 = tested on: WM115
WM1716 = tested on: WM1716
WM1745 = tested on: WM1745
WM3526 = tested on: WM3526
WM3619 = tested on: WM3619
WM451Lu = tested on: WM451Lu
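Also: cell number obtained by counting DAPI-stained nuclei in high-throughput microscope images with image analysis software, screen run in 1,536-well plates.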

Row | SMILES | cell count (WM115) [%] | cell count (WM1716) [%] | cell count (WM1745) [%] | cell count (WM3526) [%] | cell count (WM3619) [%] | cell count (WM451Lu) [%]
1 | CC(C)(C)c1cnc(CSc2cnc(NC(=O)C3CCNCC3)s2)o1 + COc1cc2c(Oc3ccc4[nH]c(C)cc4c3F)ncnc2cc1OCCCN1CCCC1 [cediranib] (first compound 0.01 µM, partner dose 0.4 µM) | 95.4 | 87.3 | 89.7 | 99.7 | 99.8 | 127
2 | NC(=O)c1ccc(N(C(N)=O)c2c(F)cccc2F)nc1-c1ccc(F)cc1F + Cn1c(=O)n(-c2ccc(C(C)(C)C#N)cc2)c2c3cc(-c4cnc5ccccc5c4)ccc3ncc21 [NVP-BEZ235] (first compound 0.4 µM, partner dose 0.004 µM) | 103 | 89.4 | 102 | 89.7 | 88.6 | 113
3 | CN(NC(=O)CC(=O)NN(C)C(=S)c1ccccc1)C(=S)c1ccccc1 + CC(C)CCN1c2nc(Nc3cc(F)c(O)c(F)c3)ncc2N(C)C(=O)C1C [BID1870] (first compound 0.006 µM, partner dose 0.2 µM) | 86.1 | 91.1 | 38.6 | 83.8 | 57.6 | 85
4 | NC(=O)c1ccc(N(C(N)=O)c2c(F)cccc2F)nc1-c1ccc(F)cc1F + N#Cc1c(O)c2c(-c3ccc(-c4ccccc4O)cc3)csc2[nH]c1=O [A769662] (first compound 0.4 µM, partner dose 2 µM) | 98 | 101 | 94.2 | 105 | 112 | 88
5 | CC(C)(C)c1cnc(CSc2cnc(NC(=O)C3CCNCC3)s2)o1 + O=c1cc(-c2cccc3c2Sc2ccccc2S3)oc(N2CCOCC2)c1 [KU55933] (first compound 0.01 µM, partner dose 1 µM) | 102 | 114 | 98.5 | 90.2 | 104 | 103
6 | Cc1ccc(NC(=O)c2cccc(N(C)C)c2)cc1NC(=O)c1ccc(O)cc1 + COc1ccc(-c2ccc3c(N4CCOCC4)nc(N4C[C@@H](C)O[C@@H](C)C4)nc3n2)cc1CO [KU0063794] (first compound 2 µM, partner dose 0.02 µM) | 90.1 | 99.4 | 89.6 | 82.7 | 98.6 | 66.9
7 | CN(NC(=O)CC(=O)NN(C)C(=S)c1ccccc1)C(=S)c1ccccc1 + O=c1cc(-c2cccc3c2Sc2ccccc2S3)oc(N2CCOCC2)c1 [KU55933] (first compound 0.006 µM, partner dose 1 µM) | 77.5 | 91.8 | 58.3 | 97.7 | 72.8 | 114
8 | CCCCCCCCc1ccc(CCC(N)(CO)CO)cc1 [fingolimod] + O=C(Nc1ccccc1)c1cc([N+](=O)[O-])ccc1Cl [GW9662] (first compound 2 µM, partner dose 2 µM) | 98.3 | 72.1 | 69.3 | 68.8 | 80.8 | 102
9 | CCCCCCCCc1ccc(CCC(N)(CO)CO)cc1 [fingolimod] + CN(c1ncccc1CNc1nc(Nc2ccc3c(c2)CC(=O)N3)ncc1C(F)(F)F)S(C)(=O)=O [PF562271] (first compound 2 µM, partner dose 0.08 µM) | 81.8 | 83.3 | 63.5 | 92.9 | 72.7 | 85.1
10 | NC(=O)c1ccc(N(C(N)=O)c2c(F)cccc2F)nc1-c1ccc(F)cc1F + CC(C)(C)c1cnc(CSc2cnc(NC(=O)C3CCNCC3)s2)o1 [SNS-032] (first compound 0.4 µM, partner dose 0.01 µM) | 90 | 85.5 | 92.9 | 106 | 108 | 85.5
11 | CCCCCCCCc1ccc(CCC(N)(CO)CO)cc1 [fingolimod] + Nc1cccc2c1CN(C1CCC(=O)NC1=O)C2=O [lenalidomide] (first compound 2 µM, partner dose 1 µM) | 88.2 | 77 | 83.2 | 93.5 | 74 | 103
12 | CC(C)(C)c1cnc(CSc2cnc(NC(=O)C3CCNCC3)s2)o1 + CCc1ccc(CCOc2ccc(CC3SC(=O)NC3=O)cc2)nc1 [pioglitazone] (first compound 0.01 µM, partner dose 2 µM) | 96.3 | 90.4 | 92.5 | 91.2 | 123 | 97
13 | NC(=O)c1ccc(N(C(N)=O)c2c(F)cccc2F)nc1-c1ccc(F)cc1F + O=C(O)[C@@H]1[O][Sb](=[O])([O][Sb]2(=[O])[O][C@H]([C@H](O)CO)[C@H](O)[C@H](C(=O)O)[O]2)[O][C@H]([C@H](O)CO)[C@@H]1O [stibogluconate] (first compound 0.4 µM, partner dose 2 µM) | 98.8 | 90 | 92 | 106 | 98.2 | 111

— the supplement of paper PMC4604168 (melanoma cell lines)
